The campaign covered roughly 310,000 compounds. About 2,200 (0.71%) showed an effect of 50% or more. The effect is printed as a negative number. The list shows a part of the results.

human ether-à-go-go-related gene (hERG) potassium channel, sequence (Q12809 whole entry, looked up): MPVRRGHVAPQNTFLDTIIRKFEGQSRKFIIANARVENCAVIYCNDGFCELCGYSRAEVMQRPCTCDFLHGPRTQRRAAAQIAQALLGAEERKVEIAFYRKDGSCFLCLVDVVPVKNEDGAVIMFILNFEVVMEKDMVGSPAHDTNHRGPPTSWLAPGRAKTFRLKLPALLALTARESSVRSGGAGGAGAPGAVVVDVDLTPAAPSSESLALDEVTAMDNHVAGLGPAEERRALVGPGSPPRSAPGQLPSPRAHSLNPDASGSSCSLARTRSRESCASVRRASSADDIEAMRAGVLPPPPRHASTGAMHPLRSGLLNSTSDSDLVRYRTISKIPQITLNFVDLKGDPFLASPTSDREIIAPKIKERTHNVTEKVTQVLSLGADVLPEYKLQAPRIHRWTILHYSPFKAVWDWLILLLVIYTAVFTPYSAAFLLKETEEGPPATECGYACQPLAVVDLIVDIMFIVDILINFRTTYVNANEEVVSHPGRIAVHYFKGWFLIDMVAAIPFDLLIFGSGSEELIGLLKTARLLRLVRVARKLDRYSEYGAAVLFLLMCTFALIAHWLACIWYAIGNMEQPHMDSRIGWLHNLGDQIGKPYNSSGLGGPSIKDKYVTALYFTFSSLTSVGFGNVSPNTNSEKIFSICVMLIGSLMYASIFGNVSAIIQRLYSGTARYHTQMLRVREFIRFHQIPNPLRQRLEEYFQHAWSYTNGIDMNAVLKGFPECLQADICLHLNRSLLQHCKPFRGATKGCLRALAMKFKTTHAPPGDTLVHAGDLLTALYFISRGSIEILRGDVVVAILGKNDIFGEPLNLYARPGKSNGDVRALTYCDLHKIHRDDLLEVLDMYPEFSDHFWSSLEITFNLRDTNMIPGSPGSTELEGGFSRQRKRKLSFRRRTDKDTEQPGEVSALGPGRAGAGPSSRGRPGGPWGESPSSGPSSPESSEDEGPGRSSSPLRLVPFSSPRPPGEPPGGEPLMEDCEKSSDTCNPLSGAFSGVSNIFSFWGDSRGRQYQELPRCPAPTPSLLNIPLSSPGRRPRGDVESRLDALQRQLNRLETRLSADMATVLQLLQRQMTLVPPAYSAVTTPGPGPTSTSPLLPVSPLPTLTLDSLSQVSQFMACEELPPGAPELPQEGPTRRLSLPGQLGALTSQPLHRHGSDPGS

The experiment addresses human ether-à-go-go-related gene (hERG) potassium channel (human, UniProt Q12809). Briefly: primary screen, population patch clamp on CHO cells stably expressing hERG.
As for `CCCNC(=O)Cn1c(=O)/c(=C\c2ccc(-c3ccc([N+](=O)[O-])cc3)o2)s/c1=C\C(=O)C(C)(C)C`, the “hERG current change (%, negative = inhibition) at 1uM” value is recorded as 2.2%.
As for `Cc1cc(Nc2ccc(C(=O)N3CCCCC3)cc2)c2cccc(C)c2n1`, the “hERG current change (%, negative = inhibition) at 1uM” value was determined as 1.48%.
Take `Cc1ccc(NC2CCCN(C(=O)c3cnc4ccccn4c3=O)C2)cc1C` (stereo not drawn): the “hERG current change (%, negative = inhibition) at 1uM” value turned out to be 5.56%.
To `NS(=O)(=O)c1ccc2c(c1)oc(=O)c1cc(S(N)(=O)=O)ccc12` belongs 1.79%; to `CC(=O)c1c(C)[nH]c(C(=O)Nc2cc(C)cc(C)c2)c1C`, 2.12%.
As for `COc1ccccc1NC(=O)Nc1nc(CC(=O)NCc2cccnc2)cs1`, the “hERG current change (%, negative = inhibition) at 1uM” value is given as 13.4%.
`COc1cc2c(=O)n(CC3CCCO3)c(=O)n(CC(=O)Nc3cccc(Cl)c3)c2cc1OC` (stereo not drawn): the “hERG current change (%, negative = inhibition) at 1uM” value came to 14.5%.
For `CCN(CC)c1nc(-c2ccc(Cl)cc2)cc(C(F)(F)F)c1C#N`, the “hERG current change (%, negative = inhibition) at 1uM” value is on record as -0.0575%.
For the compound `O=C(CNC(=O)c1ccccc1)OCC(=O)N1N=C(c2ccc(Cl)cc2)CC1c1ccco1` (stereo not drawn), the “hERG current change (%, negative = inhibition) at 1uM” value is recorded as -28%.
With `Cc1ccc(C(=O)NCc2ccccn2)c(Cl)c1`, the “hERG current change (%, negative = inhibition) at 1uM” value is given as 20.6%.
The same measure for `COC1(NC(=O)c2ccccc2)C(C)=CC(=O)C=C1C`: 10.8%.
As for `COc1ccc2cc(C#N)c(N3CCOCC3)nc2c1`, the “hERG current change (%, negative = inhibition) at 1uM” value is reported as 11.3%.
To `O=C(c1ccccc1)N1CCC(CC2CC(c3cccc(Br)c3)=NO2)(C(=O)NCC2CCCCC2)CC1` (stereo not drawn) belongs 11.4%; to `CCOCCCNC(=S)Nc1cc(C)cc(C)c1`, 10.6%; to `CCOC(=O)C(Cc1c[nH]c2ccccc12)NC(=O)c1ccco1` (stereo not drawn), 8.56%.
To `COCCNC(=O)/C(C#N)=C/c1cc(C)n(C2CCCCC2)c1C` belongs 12%; to `CCc1ccc(/C=C2/SC(N3CCOCC3)=NC2=O)cc1`, 0.86%.
For `O=c1[nH]c(=O)n(Cc2ccccc2)c(O)c1/C=N/Nc1c(F)c(F)c(F)c(F)c1F`, the “hERG current change (%, negative = inhibition) at 1uM” value was found to be 10.5%.
On to `CCOC(=O)c1c(S(=O)(=O)N2CCCCC2C)c(C)n(C)c1C` (stereo not drawn), for which the “hERG current change (%, negative = inhibition) at 1uM” value is reported as 17%.
The same measure for `O=Nc1c2nc3ccccc3n(O)c-2c2ccccc12`: 4.98%; for `Cc1cc(Cl)c(S(=O)(=O)NCc2cccnc2)cc1OCC(N)=O`: 11.5%.
As for `O=C1N/C(=N/O)S/C1=C/c1cccnc1`, the “hERG current change (%, negative = inhibition) at 1uM” value is recorded as 6.06%.
For `CCOC(=O)c1ccc(NC(=O)CCc2c(C)nc3ncnn3c2C)cc1`, the “hERG current change (%, negative = inhibition) at 1uM” value is -31.4%.
On to `CCOc1ccc(C(=O)NCCC(=O)N2CCC3(CC2)NCCc2[nH]cnc23)cc1OCC`, for which the “hERG current change (%, negative = inhibition) at 1uM” value is 14%.
For `O=C(NCCc1ccccc1)C(c1ccc(F)cc1)N(C(=O)c1csnn1)C1CC1` (stereo not drawn), the “hERG current change (%, negative = inhibition) at 1uM” value came out at 10.6%.
The same measure for `O=C(c1cc2nc(-c3ccccc3)cc(C(F)(F)F)n2n1)N1CCN2CCCC2C1` (stereo not drawn): -2.99%; for `CCOC(=O)C1C(=O)NCC2CCCC21` (stereo not drawn): 9.43%; for `COc1ccc(N(CC(=O)NCc2ccccc2)S(C)(=O)=O)cc1`: 9.77%.
To `Cc1ccc(C(=O)NNC(=O)C(C)Oc2ccccc2F)cc1S(=O)(=O)N1CCOCC1` (stereo not drawn) belongs 13.5%; to `CCN1C(=O)/C(=C2/C(=O)N3c4c(cc(OC(C)=O)cc42)C(C)=CC3(C)C)SC1=S`, 0.484%; to `O=C(Cn1cnc2ccccc2c1=O)Nc1nc2ccccc2s1`, 17.7%.
Consider `O=C(CSc1ncccn1)Nc1ccc2c(c1)CCC2`, for which the “hERG current change (%, negative = inhibition) at 1uM” value is 12.2%.
The same measure for `COc1ccccc1N(CC(=O)N1CCCCCC1)S(C)(=O)=O`: 16.4%; for `COc1cc(C(=O)NCCSc2ccc(Cl)cc2)cc(OC)c1OC`: 11.4%.
As for `CC(C)NC(=O)c1nn(C)c2ccccc12`, the “hERG current change (%, negative = inhibition) at 1uM” value turned out to be 11.5%.
The same measure for `O=C(Cn1c(=O)n(CCCC(=O)NC2CCCC2)c(=O)c2ccccc21)NCCC1=CCCCC1`: 4.7%; for `N/C(=N\OC(=O)Cc1ccccc1)c1ccccn1`: 7.47%; for `Cc1ccc(S(=O)(=O)N(C)C)cc1NC(=O)COC(=O)Cc1ccsc1`: -44.4%.
As to `CCC(C(=O)NCCN1CCOCC1)n1nc(C)n2c(cc3sccc32)c1=O` (stereo not drawn), the “hERG current change (%, negative = inhibition) at 1uM” value stood at 12%.
Regarding `COC(=O)COc1ccc2oc(=O)cc(C)c2c1`, the “hERG current change (%, negative = inhibition) at 1uM” value stood at 6.84%.
Take `O=C(COC(=O)[C@@H]1CC(O)CN1S(=O)(=O)c1ccccc1[N+](=O)[O-])Nc1ccc2ccccc2c1` (stereo partly drawn): the “hERG current change (%, negative = inhibition) at 1uM” value was found to be 7%.
Regarding `Cc1cc(C)cc(NC(=O)CSc2nc(N)c(NC(=O)c3cccs3)c(=O)[nH]2)c1`, the “hERG current change (%, negative = inhibition) at 1uM” value was determined as 17.1%.
`O=C(COc1ccc(C(=O)c2ccccc2)cc1)NCC1CCCCC1`: the “hERG current change (%, negative = inhibition) at 1uM” value was determined as 5.16%.
To `CCSc1nc(NCCN(C)C)c2c3c(sc2n1)COC(C)(CC)C3` (stereo not drawn) belongs 11%; to `CC(=O)N1CCN(c2ccc(NC(=O)c3ccccc3C)cc2)CC1`, 8.99%.
In the case of `CCOc1ccc(S(=O)(=O)NCCC(=O)N2CCCC(C)C2)cc1` (stereo not drawn), the “hERG current change (%, negative = inhibition) at 1uM” value is given as -6.39%.
The same measure for `Cc1cccc(C(=O)OCC(=O)Nc2ccc3c(c2)OCCO3)c1`: 11.7%.
Take `O=c1c2ccccc2nc(/C=C/c2ccc(O)cc2)n1CCc1ccccc1`: the “hERG current change (%, negative = inhibition) at 1uM” value amounted to 5.45%.
Regarding `Cc1ccc(Oc2ccccc2NC(=O)C2=COCCO2)cc1`, the “hERG current change (%, negative = inhibition) at 1uM” value came out at 1.58%.
To `O=C(c1cn2ccccc2n1)N1CCc2c([nH]c3ccccc23)C1c1ccccn1` (stereo not drawn) belongs 14.7%; to `CCCCOC(=O)Nc1cc(C)c(Cl)cc1OC`, 2.85%.
On to `CCCCC(CC)C(=O)Nc1cccc(SC)c1` (stereo not drawn), for which the “hERG current change (%, negative = inhibition) at 1uM” value was found to be 8.47%.
With `COc1cc(/C=N\Nc2cc(=O)n(C)c(=O)n2C)ccc1O`, the “hERG current change (%, negative = inhibition) at 1uM” value is reported as 8.51%.
The same measure for `COc1ccc(C(=O)N2CCCC(c3nc(-c4cccs4)no3)C2)cc1OC` (stereo not drawn): -10.9%; for `CCN(CC)S(=O)(=O)c1cc(NC(=O)COC(=O)Cn2cnc3ccccc32)ccc1C`: 8.44%; for `O=C(Nc1nc(-c2ccc(S(=O)(=O)N3CCCC3)cc2)cs1)c1ccco1`: 12.7%.
To `O=C(O)c1[nH]c2ccc([N+](=O)[O-])cc2c1-c1ccccc1` belongs 5.9%.
Take `O=C1Nc2ccc(S(=O)(=O)NCCC3=CCCCC3)c3cccc1c23`: the “hERG current change (%, negative = inhibition) at 1uM” value worked out at 0.674%.
The same measure for `O=C(N/N=C/c1ccc(OC(F)F)cc1)c1ccc(CSc2nc3ccccc3[nH]2)cc1`: 3.48%.
To `N=c1c2c3c(sc2ncn1N)CCC3` belongs 11.5%.
As to `CCSc1nnc2ccc(-c3ccc(OC)c(OC)c3)nn12`, the “hERG current change (%, negative = inhibition) at 1uM” value was -6.21%.
The same measure for `CCN(CC(=O)Nc1ccc(NC(C)=O)cc1)C(=O)C1CCCC1`: -7.48%.
Regarding `O=C(Cn1cncn1)NCCC(c1ccccc1)c1ccccc1`, the “hERG current change (%, negative = inhibition) at 1uM” value is reported as 12.5%.
Turning to `COc1ccc(/C=N/NC(=O)c2ccoc2C)cc1OC`, the “hERG current change (%, negative = inhibition) at 1uM” value is 3.24%.
Turning to `Cc1ccc2cc(CN(C(=O)c3cccnc3)C(C)C)c(=O)[nH]c2c1`, the “hERG current change (%, negative = inhibition) at 1uM” value came out at 1.12%.
The same measure for `O=C(NN1CCOCC1)c1ccccc1Br`: 17.4%.
As to `COCc1nnc(NC(C)=O)s1`, the “hERG current change (%, negative = inhibition) at 1uM” value came out at 12.1%.
In the case of `CCc1c(C)nc2cc(-c3ccc(OC)cc3)[nH]n2c1=O`, the “hERG current change (%, negative = inhibition) at 1uM” value was -7.83%.
With `O=C1OCC2=C1C(c1ccc(F)cc1)Sc1ccccc1N2` (stereo not drawn), the “hERG current change (%, negative = inhibition) at 1uM” value came out at 14.3%.
The same measure for `CCC(C)(C)NC(=O)C(c1ccccc1Cl)N(C(=O)CCC(=O)Nc1cc(C)on1)C1CC1` (stereo not drawn): 3.62%; for `COc1ccc(/C(=N/O)C(C)(C)NO)cc1.Cl`: 7.29%; for `COc1ccccc1C(=O)NC(=O)COC(=O)C1CC2CCCC(C1)C2=O` (stereo not drawn): 19.5%.
To `O=C(N/N=C/c1c(O)n(CCc2ccccc2)c(=O)[nH]c1=O)c1ccncc1` belongs 8.41%; to `COc1ccc(OCC(O)CN2CCCC2)cc1` (stereo not drawn), 12.2%.
Consider `O=C(CC1SC(=Nc2ccccc2)N(CCCO)C1=O)Nc1ccc(Cl)cc1` (stereo not drawn), for which the “hERG current change (%, negative = inhibition) at 1uM” value is reported as 9.9%.
For the compound `CC(C)Cn1c(N)c(C(=O)COC(=O)c2cccnc2Cl)c(=O)n(C)c1=O`, the “hERG current change (%, negative = inhibition) at 1uM” value worked out at 5.47%.
Take `Cc1nc2c(C)cccc2cc1C(=O)N/N=C/c1cccc([N+](=O)[O-])c1`: the “hERG current change (%, negative = inhibition) at 1uM” value was -0.388%.
Regarding `CC(C)CNC(=O)NC(=O)COC(=O)Cn1cnc2ccccc2c1=O`, the “hERG current change (%, negative = inhibition) at 1uM” value is reported as 7.86%.
The same measure for `Nc1nnc(-c2cccc([N+](=O)[O-])c2)o1`: 13.8%; for `CCOC(=O)c1cc(CC)sc1/N=C/c1c(O)ccc2ccccc12`: -2.46%.
The same measure for `O=C(CCC(=O)Nc1ccc(Br)cc1)N/N=C/c1ccccc1O`: 6.54%.
On to `CCOC(=O)CCNC(=O)N1CCCC(C(=O)c2cc(C)c(OC)c(C)c2)C1` (stereo not drawn), for which the “hERG current change (%, negative = inhibition) at 1uM” value was determined as 8.8%.
As for `CCOC(=O)c1nnn(-c2nonc2N)c1-c1ccc(Br)cc1`, the “hERG current change (%, negative = inhibition) at 1uM” value is 10.9%.
For `CCCCCC(O)CCC(=O)NNC1=CC(=O)CC(C)(C)C1` (stereo not drawn), the “hERG current change (%, negative = inhibition) at 1uM” value is given as 11.1%.
Take `CCOCC(=O)Nc1c(C(=O)Nc2ccc3c(c2)OCO3)oc2ccccc12`: the “hERG current change (%, negative = inhibition) at 1uM” value was determined as 19.4%.
Consider `N#Cc1ccc(CN2CCN(C(=O)CC(NC(=O)c3ccccc3)c3ccccc3)CC2)cc1` (stereo not drawn), for which the “hERG current change (%, negative = inhibition) at 1uM” value is listed as -84.7%.
With `Clc1ccccc1CNc1nc2ccccc2n2cnnc12`, the “hERG current change (%, negative = inhibition) at 1uM” value is 9.39%.
As to `CC1CCCC(C)N1C(=O)Cn1nnc(-c2ccc([N+](=O)[O-])cc2)n1` (stereo not drawn), the “hERG current change (%, negative = inhibition) at 1uM” value was found to be 4.79%.
Turning to `Cc1oc(S(=O)(=O)N2CCCCC2)cc1NC(=O)Nc1ccccc1`, the “hERG current change (%, negative = inhibition) at 1uM” value turned out to be 9.14%.
`Cc1ccc(NC(=O)CCNS(=O)(=O)c2ccc(OC(F)(F)F)cc2)c(O)c1`: the “hERG current change (%, negative = inhibition) at 1uM” value is on record as 2.08%.

The values are drawn from publication PMC4336329 (PLoS ONE, 2015).
